Reference: PubChem BioAssay AID485364 (National Center for Advancing Translational Sciences (NCATS), 2010)
Several values for one entry are separate records, joined by “and”; a condition that tells them apart may be missing. Equal entries are not always repeated. Screen size: about 360,000 compounds; about 11,000 (3.1%) were called active. Inconclusive results, whose numbers are uncertain, are shown with a selection of clear calls. The call rests on the fitted dose curve; in most records, active means well fitted inhibition curve with a large enough effect; inconclusive means small, poorly fitted or top-dose-only effect; inactive means no such curve, though single readings can be large or run the other way. A potency beside an inconclusive call is a rough fit, not a confirmed value.

The compounds below were run against Schistosoma mansoni thioredoxin glutathione reductase (TGR) (UniProt Q962Y6) (assay: qHTS Assay for the Inhibitors of Schistosoma Mansoni Peroxiredoxins). Settings: purified TGR, DTNB reduction, TNB absorbance 405 nm; activity change, negative = inhibition: at 114 µM (top of the series).
Method in brief: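 Kinetic colorimetric format: TGR-catalysed, NADPH-driven DTNB reduction monitored via TNB absorbance. Enzyme dispensed at 20 nM; compound exposure 15 min at room temperature before reaction start.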
Further: nearly all actives have a fitted effect of over 60% in size.
On the % scale 0 is the no-effect control and ±100 the full control effect; potency means the concentration at half of the fitted maximal effect; tags describe the fitted curve by direction and shape.

Row | SMILES | Potency | activity change, negative = inhibition
1 | CN(Cc1ccon1)C(=O)CC1C(=O)NCCN1Cc1ccc(F)c(F)c1 (configuration not stated) | inconclusive: 50.1 µM [inhibitor, partial curve] | 
2 | Cc1ccc(COC(=O)c2[nH]c3c(c2C)C(=O)CC(c2ccc(Cl)cc2)C3)cc1 (configuration not stated) | inconclusive: 89.1 µM [inhibitor, single point] | 
3 | O=C(NCc1ccco1)C(Cc1ccccc1)N1C(=O)C2C3C=CC(C3)C2C1=O (configuration not stated) | active: 22.4 µM | 
4 | CCCCn1c(N)c(N(CCOC)C(=O)CN2c3ccccc3CC2C)c(=O)[nH]c1=O (configuration not stated) | inconclusive: 56.2 µM [inhibitor, partial curve] | 
5 | O=C(OCC(=O)N1CCCC1=O)c1nc(Cl)c(Cl)c(Cl)c1Cl | inconclusive: 35.5 µM [inhibitor, partial curve] | 
6 | CCOC(=O)CNC(=O)c1cnn2cccnc12 |  | inactive: 5.95%
7 | Cc1ccc2c(c1)-c1c(cnc3cc(-c4ccc(Cl)cc4)nn13)CO2 | inconclusive: 39.8 µM [inhibitor, partial curve] | 
8 | O=C(CSc1nnc(-c2cccs2)o1)c1cccs1 |  | inactive: -13.2%
9 | CCn1c(CNC(=O)c2ccc(OC)cc2)nnc1SCC(=O)Nc1ccc(F)cc1 |  | inactive: -7.5%
10 | CCN(CC)C(=O)COc1ccc(Br)cc1Cl |  | inactive: -7.04%
11 | Cc1ccc(/C=C/C(=O)Nc2nccs2)o1 | active: 28.2 µM | 
12 | CC(C)(C)c1nnc(N/N=C/c2ccccc2O)n(N)c1=O |  | inactive: -19.9%
13 | O=C(CNC(=O)c1ccc(Br)o1)Nc1ncccc1O | active: 44.7 µM | 
14 | COC(=O)CN1C(=O)C(O)(CC(=O)c2ccc(Cl)cc2)c2ccccc21 (configuration not stated) | inconclusive: 44.7 µM [inhibitor, partial curve] | 
15 | O=C(O)CC12CC3CC(C1)CC(n1ncc(NCc4ccc5c(c4)OCO5)c(Cl)c1=O)(C3)C2 | inconclusive: 39.8 µM [inhibitor, partial curve] | 
16 | Nc1ccccc1NC(=O)CCn1c(=S)[nH]c2ccccc2c1=O |  | inactive: 5.48%
17 | Cc1ccc2[nH]c(C)c(CC(=O)O)c2c1 | inconclusive: 35.5 µM [inhibitor, full curve] | 
18 | O=C(O)c1cc(N2C(=O)C3CC=CCC3C2=O)ccc1NCc1cccnc1 (configuration not stated) |  | inactive: 84%
19 | CC(NC(=O)COc1cccnc1[N+](=O)[O-])c1ccc(Cl)cc1Cl (configuration not stated) | inconclusive: 31.6 µM [inhibitor, partial curve] | 
20 | COc1ccc(C(=O)CSc2nnc(-c3ccc(S(=O)(=O)N4CCOCC4)cc3)o2)cc1 |  | inconclusive: -40.1% [inhibitor]
21 | O=C(Cn1c(=O)n(-c2ccc(F)c(Cl)c2)c(=O)c2sc3ccccc3c21)NC1CCCCC1 |  | inactive: 4.41%
22 | OC(COCc1ccco1)CN1CCN(C(c2ccccc2)c2ccccc2)CC1 (configuration not stated) |  | inactive: -5.55%
23 | OC(CC#CCN1CCCCCC1)(c1ccccc1)C1CCCC1 (configuration not stated) | inconclusive: 25.1 µM [inhibitor, full curve] | 
24 | Cc1noc(C(=O)Nc2ccc(F)cc2F)c1Cl | inconclusive: 28.2 µM [inhibitor, single point] | 
25 | Cc1cccc(NC(c2ccc(C)s2)c2ccc3ccc(C)nc3c2O)n1 (configuration not stated) | active: 44.7 µM | 
26 | CC(NC(=O)/C=C/c1ccco1)c1nc2ccccc2n1Cc1ccccc1F (configuration not stated) | active: 35.5 µM | 

Row | SMILES | Potency | activity change, negative = inhibition
27 | CCOC(=O)/C(N=Nc1ccc(F)cc1)=C(/O)c1ccc([N+](=O)[O-])cc1 |  | inactive: -7.39%
28 | O=c1/c(=C/c2ccco2)sc2nc(-c3ccccc3Br)nn12 | inconclusive: 50.1 µM [inhibitor, partial curve] | 
29 | CC(=O)c1ccc(S(=O)(=O)N2CCn3cccc3C2c2ccc(F)c(F)c2)cc1 (configuration not stated) | inconclusive: 39.8 µM [inhibitor, partial curve] | 
30 | CCOC(=O)N1N=C(CC)CC1(O)C(F)(F)F (configuration not stated) |  | inactive: 3.85%
31 | Cc1ccc2c(c1)C(c1ccccc1)N(C(=O)c1ccc(Br)o1)CC(=O)N2 (configuration not stated) | inconclusive: 70.8 µM [inhibitor, partial curve, poor fit] | 
32 | CCN(CC)C(NC(=O)Cc1ccccc1)C(Cl)(Cl)Cl (configuration not stated) | active: 17.8 µM | 
33 | Fc1ccc(NC(=S)NN2CCOCC2)cc1Cl | inconclusive: 35.5 µM [inhibitor, partial curve] | 
34 | Cc1cccc(-n2cnc3c(c2=O)c2nc4ccccc4nc2n3Cc2ccco2)c1 | active: 2.82 µM | 
35 | Cc1nc2sc(C(c3ccco3)N3CCN(C(c4ccccc4)c4ccccc4)CC3)c(O)n2n1 (configuration not stated) | inconclusive: 39.8 µM [inhibitor, partial curve] | 
36 | CCN1C(=O)[C@@H]2[C@@H](c3ccc(SC4CCCCC4)cc3)N3CCCC[C@@]3(C(=O)OC)[C@@H]2C1=O | inconclusive: 50.1 µM [inhibitor, partial curve] | 
37 | Cc1ccc(S(=O)(=O)CCC(=O)NCCN2C(=O)S/C(=C\c3ccccc3)C2=O)cc1 |  | inactive: -5.66%
38 | Cc1c(NS(=O)(=O)c2cccc([N+](=O)[O-])c2)c(=O)n(-c2ccccc2)n1C | active: 28.2 µM | 
39 | CC(/C=N/NC(=O)CSc1nc2ccccc2n1C)=C\c1ccco1 | inconclusive: 44.7 µM [inhibitor, partial curve] | 
40 | S=C(NCCC(c1ccccc1)c1ccccc1)Nc1cccc(Cl)c1 |  | inactive: -19.5%
41 | CCCCc1ccc(NC(=S)NCc2cccnc2)cc1 | inconclusive: 1.12 µM [inhibitor, full curve] | 
42 | COc1ccc2cc1Oc1ccc(cc1)C[C@H]1c3cc(c(OC)cc3CCN1C)Oc1c(OC)c(OC)cc3c1[C@@H](C2)N(C)CC3 | active: 35.5 µM | 
43 | CC(NC(=O)C(=O)N1CCCCC1)C(c1cccs1)N1CCN(C)CC1 (configuration not stated) |  | inactive: -6.49%
44 | O=C(CN(Cc1ccco1)C(=O)c1ccc(F)cc1F)Nc1ccccc1C(F)(F)F | inconclusive: 56.2 µM [inhibitor, partial curve, poor fit] | 
45 | CCCn1c(O)c(CN2CCCC(C)C2)c(C)c(C#N)c1=O (configuration not stated) | inconclusive: 3.55 µM [inhibitor, full curve, poor fit] | 
46 | O=C(CN1CCN(S(=O)(=O)c2ccc(Br)cc2)CC1)c1ccc(O)c(O)c1 | active: 14.1 µM | 
47 | Cc1ccc(S(=O)(=O)N2CCc3ccccc3C2)cc1 | inconclusive: 3.16 µM [inhibitor, single point] | 
48 | COC(=O)[C@@]12CCCN1[C@H](c1ccc(-c3cccc(Cl)c3)c(OC)c1)[C@H]1C(=O)N(C)C(=O)[C@H]12 | inconclusive: 39.8 µM [inhibitor, full curve, poor fit] | 
49 | O=C1NCCN1Cc1ccccc1F | inconclusive: 39.8 µM [inhibitor, partial curve] | 
50 | O=c1[nH]nc(-c2ccc(NCCCO)c([N+](=O)[O-])c2)c2ccccc12 | inconclusive: 4.47 µM [inhibitor, single point] | 
51 | O=C1CSC(c2ccc(Cl)cc2Cl)N1c1ccccn1 (configuration not stated) | inconclusive: 50.1 µM [inhibitor, partial curve] | 
52 | O=c1oc(-c2ccccc2)cc(Cl)c1Cl | inconclusive: 0.891 µM [inhibitor, full curve, poor fit] | 

Row | SMILES | Potency | activity change, negative = inhibition
53 | Cc1nn(C)c(C)c1CS(=O)(=O)c1ccccc1 | active: 22.4 µM | 
54 | Cc1nc2cccnc2n1C1CCN(C(=O)Nc2ccccc2C(F)(F)F)CC1 |  | inactive: -0.224%
55 | CCOC(=O)c1cc2c(=O)n3ccccc3nc2n(Cc2ccco2)c1=NC(=O)c1ccc(OC)cc1 | inconclusive: 39.8 µM [inhibitor, partial curve] and inconclusive: 28.2 µM [inhibitor, partial curve] | 
56 | Cc1ccc(C(=O)NNC(=O)/C=C\C(=O)O)cc1 | inconclusive: 56.2 µM [inhibitor, partial curve] | 
57 | S=C(Nc1cccc(Cl)c1)Nc1ccc2c(c1)OCCO2 | inconclusive: 39.8 µM [inhibitor, partial curve] | 
58 | O=C(NCc1cccc(Cl)c1)C1CCN(c2nn3cc(-c4ccc(F)cc4)nc3s2)CC1 |  | inactive: 4.14%
59 | CCCCNc1ncnc2c1cnn2-c1ccc(Cl)cc1 |  | inactive: -0.43%
60 | CCCCn1c(O)c(C(CC)=NCCN2CCCCC2)c(=O)[nH]c1=O | active: 10 µM | 
61 | Cc1nc(-c2ccc(Cl)cc2)sc1C(=O)CBr | active: 39.8 µM | 
62 | Cn1cc(Cl)c(C(=O)N/N=C/c2ccc3c4c(cccc24)CC3)n1 |  | inactive: -1.9%
63 | O=c1[nH]c(Cc2ccccc2Cl)nc2ccccc12 | inconclusive: 15.8 µM [inhibitor, single point] | 
64 | CCOc1ccc(Nc2nc(N)nc(CCl)n2)cc1 | active: 25.1 µM | 
65 | O=C1CC(C(=O)Nc2ccc(Br)cc2)C2(CCCC2)O1 (configuration not stated) |  | inactive: -10.8%
66 | CN(C)CCN(C(=O)c1ccc(N2C(=O)CCC2=O)cc1)c1nc2cc3c(cc2s1)OCO3 | active: 20 µM | 
67 | O=C1CC(c2ccccc2)CC(=O)C1Sc1ccc(Cl)cc1 (configuration not stated) | inconclusive: 50.1 µM [inhibitor, partial curve] | 
68 | COc1ccc(C2=CC(c3ccc(OC)c(OC)c3)n3nnnc3N2)c(OC)c1 (configuration not stated) | active: 39.8 µM | 
69 | O=C(COc1ccc(Cl)cc1)NCCc1ccccn1 |  | inactive: -2.77%
70 | Clc1ccc(-c2c[nH]c3ccccc23)nn1 |  | inactive: 2.76%
71 | O=c1c(NCCc2ccc(Cl)cc2)nccn1-c1ccccc1 |  | inactive: -8.57%
72 | Cc1c(C(=O)N(Cc2cccc(Cl)c2)Cc2ccco2)oc2ccccc12 |  | inactive: 0.472%
73 | c1ccc2c(C3CCO3)cccc2c1 (configuration not stated) | inconclusive: 39.8 µM [inhibitor, full curve] | 
74 | CC(=O)Nc1ccc2nc(-c3ccco3)[nH]c2c1 | inconclusive: 44.7 µM [inhibitor, partial curve] | 
75 | CC(C(=O)O)c1ccc(-c2ccccc2)c(F)c1 (configuration not stated) | inactive | 
76 | N#CC1(C#N)CC(C=O)=C(N)C1(C#N)CC(=O)c1ccc(F)cc1 (configuration not stated) | active: 20 µM | 
77 | COc1ccccc1C(=O)NC(=O)COC(=O)/C(=C/c1ccccc1)NC(C)=O | inconclusive: 28.2 µM [inhibitor, partial curve] | 
